Measured values published in patent publication US20230322822A1, “ARYL PHOSPHOROUS OXIDE COMPOUNDS AND USE THEREOF” (Chengdu Di'ao Jiuhong Pharmaceutical Factory, priority 2020, published 2023).

Assays:
[1] = target: EGFR-Del19 (Homo sapiens, UniProt P00533); test: Enzymatic activity test (ADP-Glo) EGFR-Del19; type: biochemical; settings: kinase
Procedure: (§1) • 1. […] Test information:
(§2) To assess the effect of compounds on the activity of wild-type and mutant EGFR kinases, kinase activity was tested by measuring ATP consumption in an enzymatic reaction using an ADP-Glo (Promega Corporation) kit. Samples to be tested were dissolved in DMSO and diluted in a gradient. In a microplate, an EGFR kinase, a reaction buffer (containing Tris-HCl with a pH of 7.5, MgCl2, DTT and BSA), a kinase substrate Poly(Glu4, Tyr1) and a sample (a total volume of 20 μL per well) were added per well, while a blank control (no enzyme and sample) and a negative control (no sample) were set up; incubated for 15 minutes at 23° C.; added with 5 μL of ATP, and reacted at 23° C. for 60 minutes; added with ADP-Glo Reagent, and continuously reacted for 40 minutes at room temperature to inactivate the redundant ATP; then, added with a Kinase Detection Reagent, and reacted at room temperature for 30 minutes, then the chemiluminescence intensity L of each well was measured. […] IC50 values were calculated according to the above calculation using 4Parameter Logistic Model in XLfit software. • 3.

[2] = target: EGFR-T790M/Del19 (Homo sapiens, UniProt P00533, T790M, form not given); test: Enzymatic activity test (ADP-Glo) EGFR-T790M/Del19; type: biochemical; settings: kinase
Procedure: as §1, §2

[3] = target: EGFR-T790M/L858R (Homo sapiens (Human), UniProt P00533, L858R/T790M); test: Enzymatic activity test (ADP-Glo) EGFR-T790M/L858R; type: biochemical; settings: kinase
Procedure: as §1, §2

[4] = target: EGFR-C797S/T790M/L858R (Homo sapiens (Human), UniProt P00533, C797S/L858R/T790M); test: Enzymatic activity test (ADP-Glo) EGFR-C797S/T790M/L858R; type: biochemical; settings: kinase
Procedure: as §1, §2

[5] = target: EGFR-WT (Homo sapiens (Human), UniProt P00533); test: Enzymatic activity test (ADP-Glo) EGFR-WT; type: biochemical; settings: kinase
Procedure: as §1, §2

[6] = target: EML4-ALK kinase (Homo sapiens (Human), UniProt Q9HC35+Q9UM73); test: Enzymatic activity test 2 (ADP-Glo) EML4-ALK kinase; type: biochemical
Procedure: as §1
as §2, with “EML4-ALK” for “wild-type and mutant EGFR”, “EML4-ALK” for “EGFR”, “IGF1” for “Poly(Glu4, Tyr1)”, “up;” for “up; incubated for 15 minutes at 23° C.;”, “kinase detection reagent,” for “Kinase Detection Reagent,”

[7] = system: PC9 cells expressing EGFR-Del19; test: Cell anti-proliferation test 2 (SRB), PC9 EGFR-Del19; type: cell-based; settings: Homo sapiens, PC-9, 72 hours
Procedure: (§3) • 1. […] Test information: • 2.1. […] Test method:
(§4) The test compounds were diluted by 5 times each time with an appropriate concentration as an initial concentration of the test, and totally diluted into 6 concentration gradients. […] SRB (Sulforhodamine B) detection method was used, and the optical density value of each well was read by a microplate reader at 490 nm wavelength.
(§5) The optical density of the cells at the drug action of 0 was set as a Tz value representing the value of the cells at the time that the drug was added. The optical density value of the cells after the solvent control DMSO acted for 72 hours was set as a C value. The optical density of the cells on which the test compounds acted for 72 hours was set as a Ti value. The response of the cells to the drug was calculated according to a method proposed by the U.S. NIH-NCI (National Institutes of Health-National Institute of Cancer): When Ti is more than or equal to Tz, the value was [(Ti−Tz)/(C−Tz)]×100; and when Ti is less than Tz, the value was [(Ti-Tz)/Tz]×100.

[8] = system: PC9 cells expressing EGFR-T790M/Del19; test: Cell anti-proliferation test 2 (SRB), PC9 EGFR-T790M/Del19; type: cell-based; settings: Homo sapiens, PC-9, 72 hours
Procedure: as §3, §4, §5

[9] = system: PC9 cells expressing EGFR-C797S/T790M/Del19; test: Cell anti-proliferation test 2 (SRB), PC9 EGFR-C797S/T790M/Del19; type: cell-based; settings: Homo sapiens, PC-9, 72 hours
Procedure: as §3, §4, §5

[10] = system: Ba/F3-EML-4-ALK-WT; test: Cell anti-proliferation test 3 (CTG), Ba/F3-EML-4-ALK-WT; type: cell-based; settings: Mus musculus, 72 h, BaF3 cells, Day 3
[11] = system: Ba/F3-EML-4-ALK-L1196M; test: Cell anti-proliferation test 3 (CTG), Ba/F3-EML-4-ALK-L1196M; type: cell-based; settings: Ba/F3 EML4-ALK-L1196M, 72 h, BaF3 cells, Day 3
[12] = system: Ba/F3 cells expressing EGFR-WT; test: Cell anti-proliferation test 1 (CTG), BaF3 EGFR-WT; settings: Mus musculus, BaF3, 72 h, read-out: EGFR-WT IC50
[13] = system: Ba/F3 cells expressing EGFR-T790M/Del19; test: Cell anti-proliferation test 1 (CTG), BaF3 EGFR-T790M/Del19; settings: Mus musculus, BaF3, 72 h, read-out: EGFR-T790M/Del19 IC50
[14] = system: Ba/F3 cells expressing EGFR-T790M/L858R; test: Cell anti-proliferation test 1 (CTG), BaF3 EGFR-T790M/L858R; settings: Mus musculus, BaF3, 72 h, read-out: EGFR-T790M/L858R IC50
[15] = system: Ba/F3 cells expressing EGFR-C797S/T790M/L858R; test: Cell anti-proliferation test 1 (CTG), BaF3 EGFR-C797S/T790M/L858R; settings: Mus musculus, BaF3, 72 h, read-out: EGFR-C797S/T790M/L858R IC50
[16] = system: Ba/F3 cells expressing EGFR-C797S/T790M/Del19; test: Cell anti-proliferation test 1 (CTG), BaF3 EGFR-C797S/T790M/Del19; settings: Mus musculus, BaF3, 72 h, read-out: EGFR-C797S/T790M/Del19 IC50

Chain of EGFR-WT (P00533 25-1210): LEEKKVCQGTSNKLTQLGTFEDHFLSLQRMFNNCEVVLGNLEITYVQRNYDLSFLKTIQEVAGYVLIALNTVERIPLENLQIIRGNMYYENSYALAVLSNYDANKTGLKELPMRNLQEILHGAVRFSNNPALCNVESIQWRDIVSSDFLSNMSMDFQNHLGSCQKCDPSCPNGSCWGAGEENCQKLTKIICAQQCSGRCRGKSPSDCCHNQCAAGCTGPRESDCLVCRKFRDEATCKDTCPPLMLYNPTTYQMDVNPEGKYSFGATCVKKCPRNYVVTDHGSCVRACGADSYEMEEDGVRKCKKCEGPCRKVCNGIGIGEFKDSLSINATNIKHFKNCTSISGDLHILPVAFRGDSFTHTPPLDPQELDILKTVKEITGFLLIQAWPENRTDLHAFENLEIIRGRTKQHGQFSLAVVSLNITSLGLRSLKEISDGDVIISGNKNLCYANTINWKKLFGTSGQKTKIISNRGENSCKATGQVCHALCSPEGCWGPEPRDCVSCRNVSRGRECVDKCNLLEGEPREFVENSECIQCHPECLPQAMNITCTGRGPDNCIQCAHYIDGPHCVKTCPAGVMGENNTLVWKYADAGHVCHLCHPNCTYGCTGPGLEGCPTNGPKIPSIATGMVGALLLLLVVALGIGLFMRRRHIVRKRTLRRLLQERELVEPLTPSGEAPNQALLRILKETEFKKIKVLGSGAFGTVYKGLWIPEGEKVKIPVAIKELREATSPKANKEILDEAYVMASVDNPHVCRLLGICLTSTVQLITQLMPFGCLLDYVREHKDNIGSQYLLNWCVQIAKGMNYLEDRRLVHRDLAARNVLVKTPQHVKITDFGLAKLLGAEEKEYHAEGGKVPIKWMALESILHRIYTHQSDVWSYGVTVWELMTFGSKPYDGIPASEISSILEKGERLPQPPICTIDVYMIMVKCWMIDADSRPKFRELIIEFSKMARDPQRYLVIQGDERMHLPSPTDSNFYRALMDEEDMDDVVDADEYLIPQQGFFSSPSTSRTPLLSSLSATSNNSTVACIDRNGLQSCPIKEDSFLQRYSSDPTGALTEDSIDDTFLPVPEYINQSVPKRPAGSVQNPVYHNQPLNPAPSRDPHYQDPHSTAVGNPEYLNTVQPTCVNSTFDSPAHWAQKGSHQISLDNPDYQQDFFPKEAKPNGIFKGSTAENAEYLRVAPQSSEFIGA
Chain of EGFR-Del19 (P00533 25-1210 limits assumed): as the sequence (P00533 25-1210) above
Chain of EGFR-T790M/L858R (P00533 25-1210 T790M/L858R): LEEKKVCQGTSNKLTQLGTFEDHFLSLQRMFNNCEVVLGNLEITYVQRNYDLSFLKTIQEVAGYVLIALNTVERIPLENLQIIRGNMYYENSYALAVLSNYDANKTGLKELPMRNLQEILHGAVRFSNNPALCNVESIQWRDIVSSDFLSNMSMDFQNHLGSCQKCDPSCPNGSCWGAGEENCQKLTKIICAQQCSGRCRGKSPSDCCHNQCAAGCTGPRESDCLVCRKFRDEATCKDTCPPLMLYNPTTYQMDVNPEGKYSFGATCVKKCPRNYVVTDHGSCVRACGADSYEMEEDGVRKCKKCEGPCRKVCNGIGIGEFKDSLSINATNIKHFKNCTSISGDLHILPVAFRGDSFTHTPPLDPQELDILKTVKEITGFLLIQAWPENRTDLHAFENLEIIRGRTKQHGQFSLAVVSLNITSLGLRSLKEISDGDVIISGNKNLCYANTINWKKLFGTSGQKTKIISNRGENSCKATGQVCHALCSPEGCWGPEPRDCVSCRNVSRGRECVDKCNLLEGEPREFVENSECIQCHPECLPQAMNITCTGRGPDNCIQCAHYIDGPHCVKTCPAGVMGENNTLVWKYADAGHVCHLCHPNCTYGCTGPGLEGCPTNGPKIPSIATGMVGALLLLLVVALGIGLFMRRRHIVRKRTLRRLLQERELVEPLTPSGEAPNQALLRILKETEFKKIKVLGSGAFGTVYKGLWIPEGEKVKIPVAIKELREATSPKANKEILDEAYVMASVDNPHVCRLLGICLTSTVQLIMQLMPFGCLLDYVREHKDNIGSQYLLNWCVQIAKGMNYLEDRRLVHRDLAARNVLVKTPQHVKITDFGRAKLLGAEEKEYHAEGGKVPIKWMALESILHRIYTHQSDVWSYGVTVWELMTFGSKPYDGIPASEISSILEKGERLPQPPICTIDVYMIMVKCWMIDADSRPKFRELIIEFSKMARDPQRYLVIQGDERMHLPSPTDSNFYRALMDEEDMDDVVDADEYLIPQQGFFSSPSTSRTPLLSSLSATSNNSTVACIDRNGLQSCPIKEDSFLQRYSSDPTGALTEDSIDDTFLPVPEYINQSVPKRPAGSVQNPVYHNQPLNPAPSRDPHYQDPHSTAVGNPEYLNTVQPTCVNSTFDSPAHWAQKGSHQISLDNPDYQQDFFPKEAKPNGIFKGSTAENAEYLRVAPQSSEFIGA
Chain of EGFR-C797S/T790M/L858R (P00533 25-1210 T790M/C797S/L858R): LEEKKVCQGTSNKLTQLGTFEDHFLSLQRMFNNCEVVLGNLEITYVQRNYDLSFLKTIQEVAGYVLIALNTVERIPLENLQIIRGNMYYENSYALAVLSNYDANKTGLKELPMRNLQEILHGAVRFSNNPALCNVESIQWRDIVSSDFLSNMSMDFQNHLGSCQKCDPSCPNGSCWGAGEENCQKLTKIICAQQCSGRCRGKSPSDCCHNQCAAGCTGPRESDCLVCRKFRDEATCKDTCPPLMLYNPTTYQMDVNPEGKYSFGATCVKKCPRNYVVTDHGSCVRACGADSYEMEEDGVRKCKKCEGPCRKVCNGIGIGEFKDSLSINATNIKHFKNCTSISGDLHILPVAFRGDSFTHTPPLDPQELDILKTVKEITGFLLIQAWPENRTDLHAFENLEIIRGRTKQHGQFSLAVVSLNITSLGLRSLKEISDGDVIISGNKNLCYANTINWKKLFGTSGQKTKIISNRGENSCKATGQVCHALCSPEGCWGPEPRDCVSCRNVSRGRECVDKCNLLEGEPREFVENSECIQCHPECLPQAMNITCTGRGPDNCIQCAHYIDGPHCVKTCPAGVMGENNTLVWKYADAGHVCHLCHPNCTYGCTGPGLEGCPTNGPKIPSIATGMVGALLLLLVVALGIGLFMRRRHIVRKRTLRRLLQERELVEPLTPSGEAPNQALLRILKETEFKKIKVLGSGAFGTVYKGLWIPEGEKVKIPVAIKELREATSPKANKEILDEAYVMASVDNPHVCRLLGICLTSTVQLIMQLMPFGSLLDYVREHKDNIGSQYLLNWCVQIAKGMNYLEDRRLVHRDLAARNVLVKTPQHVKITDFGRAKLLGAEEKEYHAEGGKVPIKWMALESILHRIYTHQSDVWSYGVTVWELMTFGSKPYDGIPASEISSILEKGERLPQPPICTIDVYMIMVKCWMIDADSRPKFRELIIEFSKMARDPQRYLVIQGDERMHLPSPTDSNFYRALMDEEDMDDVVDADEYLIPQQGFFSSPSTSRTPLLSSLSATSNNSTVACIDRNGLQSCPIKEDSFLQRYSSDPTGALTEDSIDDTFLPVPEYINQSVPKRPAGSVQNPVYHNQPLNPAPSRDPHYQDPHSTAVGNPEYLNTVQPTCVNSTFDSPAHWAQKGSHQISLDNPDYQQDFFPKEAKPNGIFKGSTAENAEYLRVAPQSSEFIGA

## COc1cc(N2CCC(N3CCN(C)CC3)CC2)c(C)cc1Nc1ncc(Cl)c(Nc2cccc(C)c2P(C)(C)=O)n1 [Control compound 1, reference compound]
[1]
  IC50: > 250 nM
[2]
  IC50: > 250 nM
[3]
  IC50: > 250 nM
[4]
  IC50: > 250 nM
[5]
  IC50: > 250 nM
[6]
  IC50: > 250 nM
[7]
  GI50: 266 nM
[8]
  GI50: 267 nM
[9]
  GI50: 337 nM
[10]
  IC50: 34.1 nM
[11]
  IC50: 65 nM
[12]
  IC50: 1600 nM
[13]
  IC50: 166 nM
[14]
  IC50: 156 nM
[15]
  IC50: 626 nM
[16]
  IC50: 180 nM

## COc1cc(N2CCC(N3CCN(C)CC3)CC2)c(C)cc1Nc1ncc(Cl)c(Nc2ccc(C)cc2P(C)(C)=O)n1 [Compound 1]
[1]
  IC50: 20.6 nM
[2]
  IC50: 4.1 nM
[3]
  IC50: 13.9 nM
[4]
  IC50: 22.2 nM
[5]
  IC50: 95.4 nM
[6]
  IC50: 14.9 nM
[7]
  GI50: 57.5 nM
[8]
  GI50: 17.5 nM
[9]
  GI50: 19 nM
[10]
  IC50: 12.1 nM
[11]
  IC50: 24.4 nM
[12]
  IC50: 1290 nM
[13]
  IC50: 14.6 nM
[14]
  IC50: 48.3 nM
[15]
  IC50: 96.9 nM
[16]
  IC50: 21.5 nM

## COc1cc(N2CCC(N3CCN(C)CC3)CC2)c(C)cc1Nc1ncc(Cl)c(Nc2ccccc2P(C)(C)=O)n1 [Control compound 2, reference compound]
[1]
  IC50: > 250 nM
[2]
  IC50: > 250 nM
[3]
  IC50: > 250 nM
[4]
  IC50: > 250 nM
[5]
  IC50: > 250 nM
[6]
  IC50: > 250 nM
[7]
  GI50: 262 nM
[8]
  GI50: 289 nM
[9]
  GI50: 316 nM
[10]
  IC50: 43.6 nM
[11]
  IC50: 47.4 nM
[12]
  IC50: 1760 nM
[13]
  IC50: 172 nM
[15]
  IC50: 583 nM
[16]
  IC50: 221 nM

## COc1cc(N2CCC(N3CCN(C)CC3)CC2)ccc1Nc1ncc(Cl)c(Nc2ccc(C)cc2P(C)(C)=O)n1 [Control compound 3, reference compound]
[1]
  IC50: > 250 nM
[2]
  IC50: > 250 nM
[3]
  IC50: > 250 nM
[4]
  IC50: > 250 nM
[5]
  IC50: > 250 nM
[6]
  IC50: 106 nM
[7]
  GI50: 368 nM
[8]
  GI50: 389 nM
[9]
  GI50: 502 nM
[10]
  IC50: 39.4 nM
[11]
  IC50: 50.2 nM
[12]
  IC50: 2340 nM
[13]
  IC50: 216 nM
[15]
  IC50: 566 nM
[16]
  IC50: 192 nM

## CCc1cc(Nc2ncc(Br)c(Nc3ccc(C)cc3P(C)(C)=O)n2)c(OC)cc1N1CCC(N2CCN(C)CC2)CC1 [Compound 12]
[1]
  IC50: 33.7 nM
[2]
  IC50: 6.9 nM
[3]
  IC50: 20.5 nM
[4]
  IC50: 16.9 nM
[5]
  IC50: 160 nM
[6]
  IC50: 21.3 nM
[7]
  GI50: 35.6 nM
[8]
  GI50: 13.4 nM
[9]
  GI50: 9.7 nM
[10]
  IC50: 10.1 nM
[11]
  IC50: 12.5 nM
[12]
  IC50: 785 nM
[13]
  IC50: 8.1 nM
[14]
  IC50: 24.6 nM
[15]
  IC50: 37.1 nM
[16]
  IC50: 13.5 nM

## COc1cc(N2CCC(N3CCN(C)CC3)CC2)c(Br)cc1Nc1ncc(Br)c(Nc2ccc(C)cc2P(C)(C)=O)n1 [Compound 32]
[1]
  IC50: 19.6 nM
[2]
  IC50: 8.9 nM
[3]
  IC50: 18.7 nM
[4]
  IC50: 15.9 nM
[5]
  IC50: 131 nM
[6]
  IC50: 13.7 nM
[10]
  IC50: 8.9 nM
[11]
  IC50: 14.3 nM
[12]
  IC50: 806 nM
[13]
  IC50: 3.8 nM
[14]
  IC50: 16.9 nM
[15]
  IC50: 85.9 nM
[16]
  IC50: 22.7 nM

## COc1cc(N2CCC(N(C)C)CC2)c(C)cc1Nc1ncc(Cl)c(Nc2ccc(C)cc2P(C)(C)=O)n1 [Compound 5]
[1]
  IC50: 37.1 nM
[2]
  IC50: 1.9 nM
[3]
  IC50: 40.6 nM
[4]
  IC50: 30 nM
[5]
  IC50: 113 nM
[6]
  IC50: 16.3 nM
[7]
  GI50: 42.6 nM
[8]
  GI50: 15.9 nM
[9]
  GI50: 23.6 nM
[10]
  IC50: 6.5 nM
[11]
  IC50: 15.6 nM
[12]
  IC50: 1780 nM
[13]
  IC50: 38.1 nM
[14]
  IC50: 55.9 nM
[15]
  IC50: 119 nM
[16]
  IC50: 26.8 nM

## COc1cc(N2CCC(N3CCN(C)CC3)CC2)c(C)cc1Nc1ncc(Br)c(Nc2ccc(F)cc2P(C)(C)=O)n1 [Compound 11]
[1]
  IC50: 27.4 nM
[2]
  IC50: 3.4 nM
[3]
  IC50: 24.9 nM
[4]
  IC50: 12.7 nM
[5]
  IC50: 98.6 nM
[6]
  IC50: 31.2 nM
[7]
  GI50: 43.9 nM
[8]
  GI50: 14.6 nM
[9]
  GI50: 10.9 nM
[10]
  IC50: 9.4 nM
[11]
  IC50: 17.1 nM
[12]
  IC50: 1090 nM
[13]
  IC50: 17.3 nM
[14]
  IC50: 21.6 nM
[15]
  IC50: 82.6 nM
[16]
  IC50: 19 nM
